# Experimental data: the supplement of paper PMC10126150
# Values marked as one replicate rest on one cluster of the flow cell; about a third of the high ones do not repeat.
# Tested on: ATP
# Experiment: switch fluorescence ratio, 500 uM ATP over buffer (Cy3 cluster intensity, sum of 5 cycles each) (fold (ratio)); higher = stronger signal-on switching upon ATP binding; sequences stand for … in TCGTCGGCAGCGTCAGATGTGTATAAGAGACAGTTTTTTTTTTTTTTTTTTTTTTTTT…TC
# Settings: aptamer strand: ATP DNA aptamer (quencher-CACCTGGGGGAGTATTGCGGAGGAAGG + anchor), 100 nM annealed; ATP concentration: 500 uM; one replicate
# How it was run: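 The quencher-labelled ATP aptamer, at 100 nM, was annealed to Cy3-labelled switching-strand clusters on a modified Illumina MiSeq flow-cell. The clusters were imaged in selection buffer, then after 15 min with 500 uM ATP at 22 °C, and this buffer/ATP cycle ran five times with NaOH stripping and re-annealing between runs. Per-cluster fluorescence ratios, summed target-cycle over summed buffer-cycle Cy3 intensity, were averaged per switch-domain sequence. Clusters outside 100-1000 RFU were excluded.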
# 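Note: ATP exposure 15 min at 22 °C before imaging.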
row,Sequence,switch fluorescence ratio
1,CTCGGGAAAT,0.999
2,CGGGGGCCTT,1.02
3,TAATTTAACC,1.02
4,GCCATCATAT,0.954
5,AAAGGATTTC,0.981
6,GTGATCTCGT,1.05
7,GCGTTATGCT,1.03
8,ACAGAAAAGG,0.985
9,TCTCTTTCGT,1.03
10,ACAGGACGTA,1
11,TCTTGGGCAA,1.85
12,AGGCACATCA,1.02
13,TCAGGGGGTA,1.14
14,CCGTGGCTG,1.02
15,GTTCAACATG,1
16,AAGCCTGGCA,1.04
17,TCCTATTGCA,1.27
18,AGAGGATTAG,1.04
19,CAAGGGCTAG,1.03
20,ATTATTTAAC,0.966
21,TTGGTTGGGC,1.02
22,TCTAGTTGCG,1.03
23,GATTTTTTCC,1.13
24,CCCGGCTCTG,1.02
25,GGTATACAAT,1.01
26,AGCCTAAAGG,0.936

row,Sequence,switch fluorescence ratio
1,TGCGCTGGGG,1.02
2,TACCTATT,1.05
3,AATTCTCCGT,1.12
4,TATTGGTCAG,1.01
5,GTCACTTGAA,1.03
6,CGTGCGATCA,0.983
7,GTTGCTATG,0.996
8,TTGCCAGTGG,1.09
9,CGTTTTAGGA,0.949
10,AGGTAAGCGT,1.05
11,TGCCGTGCGC,0.947
12,GGAAAATTAG,0.987
13,CGAGGAACAA,1.06
14,TTGGAGGAG,0.987
15,ACAATTGTT,1.01
16,ATTAGTGCAA,1.08
17,TAAGATACCG,1.09
18,CTGAAATGGA,1
19,GAACTATTT,1.05
20,TGCGTTGTTT,1.14
21,CGCGTTGCAC,1.07
22,TGGACTCTTG,0.996
23,TCCTATCA,0.917
24,ATATTGTTAC,1.01
25,CCACCTTATA,1.12
26,TCTGTTATGT,1.03

row,Sequence,switch fluorescence ratio
1,TCATGGTAGT,1
2,CTTACACCAT,1.06
3,GGTGTTCTTT,1.03
4,TTCATTCCAG,1
5,TGAATTGCTG,0.839
6,TCAAATTTGT,1.01
7,GTGGAAGCGG,0.97
8,AGGTTTTAAA,0.984
9,TACCTAGGCT,1.03
10,CTTAATACTA,1.01
11,GGAGTAACCA,0.982
12,TGTCGACACA,0.959
13,GTGCTTGGAC,1.02
14,TTATACCGCG,1.04
15,AGGCGGCTAT,0.994
16,TCGACGATTA,1.14
17,CTAGGCATGG,1.01
18,CGCGGTGGGG,0.974
19,CCTTGGCGGG,1.08
20,TAGGTACTG,1.02
21,GCCGTATCAG,0.98
22,TTAGTACGTA,1.03
23,CTGATTTCGG,1.1
24,TATGTGGGTT,0.95
25,ATGACAAATC,0.983
26,TTAGTGGTGC,1

row,Sequence,switch fluorescence ratio
1,TTAACAGGGC,0.989
2,CTGTTCAGGT,1
3,AAGGTCCCCT,0.969
4,GCTTAGGAGG,0.982
5,TGTGTACAGC,1.06
6,TAACAATGTA,1.05
7,TTGCTCACAG,0.972
8,TTGTTAGTCG,1.04
9,GTCGGGTAGC,1.01
10,AATAATATGT,1.02
11,AAGCGCCAG,0.979
12,CCAGCCCCCG,1.11
13,GAGAAAAGGT,0.957
14,AACTTGTCGT,0.98
15,AAATTGCCGT,0.976
16,AAAGGGCACG,0.925
17,TATGAGCCCA,0.981
18,CTAGGACGTT,1.04
19,TTTTTCTTGC,1.03
20,GCTATACCCT,1.24
21,CTTGGCTTAC,1.05
22,CAGACCTTGA,1.03
23,TTAAATTAAC,1.04
24,GTTTCCGCTA,2.44
25,TTCAGAAACG,0.996
26,TCCTGCGACT,1.23

row,Sequence,switch fluorescence ratio
1,CACATATCGT,1.12
2,AAGGTGTTAG,1.02
3,GACGGTTGGT,0.949
4,GTTATATCGA,0.995
5,GCTTCTGAA,0.999
6,TAAACGTCT,1.03
7,GGTTGACACC,0.982
8,GAGGTGTAAG,0.965
9,TGACACAGGG,1.11
10,GGAAAATATT,1.01
11,CCCCAAAGTT,0.957
12,TGAAGTTAAT,1.03
13,CTATCACGGT,1.02
14,AGAGTAAAGA,1.05
15,TGTATGATAG,1
16,TGACTGTAAC,1.18
17,TTGTCTACAT,1.03
18,ACCCCCGCAA,2.23
19,AAAGGACCTA,1.01
20,AGGCTACGT,1.01
21,AGCTCTGCTC,1
22,GGGTCGGCTC,0.968
23,GGTTGTTAAT,0.969
24,TGTACGGCTT,1
25,GACCTATCAA,1.01
26,GTAAGCTAGG,1

row,Sequence,switch fluorescence ratio
1,TTACGCGCTT,1.01
2,TATGCGCGTA,0.986
3,CCATTGTAG,1.03
4,GACCTCCAGT,1.03
5,TGTCTCCTAA,0.985
6,CGCGGTGAC,1.53
7,AGCAATGCTA,1.92
8,ACATTACACT,1.26
9,GGTGTCAATG,0.975
10,GTGTGGTTTG,1.01
11,CTGCTCCTAC,1.67
12,GCGAAGCGGC,1.01
13,GTTAATAAGT,1.04
14,GTTTTCACAA,0.991
15,CTACGTTATA,1.81
16,AAATGAAATG,1.02
17,ATTGGAAGAG,1.03
18,GTACGCAGC,1.98
19,CACGGATATG,1.02
20,CATTAATATC,1.03
21,TATGCTCCGC,1.42
22,CGGTCAAGTA,0.915
23,TTTAGAGACT,0.984
24,CCTTGGAGC,1.05
25,AACTGGGGCC,0.992
26,TGTGACATGC,0.99

row,Sequence,switch fluorescence ratio
1,AGGGTCATGG,1.03
2,CCTTTCCGTC,1.49
3,AAGCACGGAG,1.07
4,TCTGGATGAC,1.06
5,TGGATTCTGG,0.971
6,GGGTTAGCAT,0.96
7,GAAGCGACCT,1.03
8,GGTAGAGAGT,0.946
9,CGCTGGAGTC,1.03
10,GATTCTAGAT,1.05
11,ACGGCGCTGC,1.19
12,CTGTTGAAGA,0.956
13,TGATCTGGAG,0.977
14,TAAGGGAGGC,1.02
15,CAGAGCGAGT,0.998
16,TTCCAGGCCA,1.01
17,CGGGACCAAT,1.04
18,TAGGGAGTTT,1.06
19,AGGACAGAG,0.95
20,TCTTTTGATA,0.989
21,AAGTTGTAC,1.26
22,AGTAACTATT,1.07
23,AAGAGGAGTC,0.986
24,GGCTGGCTGG,0.95
25,AGTGTTTAGA,1.02
26,CCATAGGAGC,1.03

row,Sequence,switch fluorescence ratio
1,ATTTAAGGC,1.04
2,TGAAGCTCTG,1.03
3,AGCCGACCTG,0.97
4,AGGGGATAAA,0.955
5,GTAGTCTCTG,0.979
6,GGGAGGAACG,0.948
7,CGTACCGATC,1.07
8,CTGCCCCTTC,1.03
9,GAACAAGCTT,0.956
10,TTCAGGGCGG,0.973
11,GGCACCGAGG,1.05
12,TCAAACTAGT,1.04
13,GCCGGTGGCT,0.983
14,TGCACCACCG,1.16
15,TACGAGGGCC,1.08
16,CGCGCTTTT,1.03
17,TAATTGTGGG,0.961
18,AAGGACACGC,1.02
19,CCTCAACATG,1.43
